The list shows a part of the results. The list includes weakly bound sequences.
What follows are sequences tested against T1, MBP-FoxP3dN (UniProt Q99JB6) (assay: PD-seq (MBP pull-down with sequencing)). Conditions: 20 mM Tris-HCl pH 7.5, 100 mM NaCl, 1.5 mM MgCl2, 0.4 uM protein, 0.1 uM dsDNA library, 30 min, room temperature, amylose pull-down; high values mean tight binding; double strand, one strand shown.
T1 sequence: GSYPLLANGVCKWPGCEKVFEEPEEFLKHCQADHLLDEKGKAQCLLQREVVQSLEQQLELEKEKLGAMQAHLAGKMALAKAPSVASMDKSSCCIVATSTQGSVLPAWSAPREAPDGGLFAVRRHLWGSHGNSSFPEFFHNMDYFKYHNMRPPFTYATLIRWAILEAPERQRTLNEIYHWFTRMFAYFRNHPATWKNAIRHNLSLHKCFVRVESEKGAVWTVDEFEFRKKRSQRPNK

Row | Sequence | binding signal (RPM ratio (pull-down/input))
1 | GATGATTGTTCTCCCAGCTGATGAATTACTAGATTCGAGTAAACAAATTTTCCTAATCTTTCTGTTCAAGCGCCATCTAC | 0.313
2 | GATGATTGTTCTCCCAGCTGATGAATTATTGAAATCGAGTAAACAAATTTTCCTAATCTTTCTGTTCAAGCGCCATCTAC | 0.461
3 | GATGATTGTTCTCCCAGCTGATGAATTCCAGTCGTCGAGTAAACAAATTTTCCTAATCTTTCTGTTCAAGCGCCATCTAC | 0.493
4 | GATGATTGTTCTCCCAGCTGATGAATTCCGTGAATCGAGTAAACAAATTTTCCTAATCTTTCTGTTCAAGCGCCATCTAC | 0.272
5 | GATGATTGTTCTCCCAGCTGATGAATTCTTTCCTTCGAGTAAACAAATTTTCCTAATCTTTCTGTTCAAGCGCCATCTAC | 0.23
6 | GATGATTGTTCTCCCAGCTGATGAATTGGATTGCTCGAGTAAACAAATTTTCCTAATCTTTCTGTTCAAGCGCCATCTAC | 1.29
7 | GATGATTGTTCTCCCAGCTGATGAATTTACCTAGTCGAGTAAACAAATTTTCCTAATCTTTCTGTTCAAGCGCCATCTAC | 0.33
8 | GATGATTGTTCTCCCAGCTGATGAATTCGCCTGATCGAGTAAACAAATTTTCCTAATCTTTCTGTTCAAGCGCCATCTAC | 0.388
9 | GATGATTGTTCTCCCAGCTGATGAATTGCCTAGTTCGAGTAAACAAATTTTCCTAATCTTTCTGTTCAAGCGCCATCTAC | 0.527
10 | GATGATTGTTCTCCCAGCTGATGAATTAGTCAACTCGAGTAAACAAATTTTCCTAATCTTTCTGTTCAAGCGCCATCTAC | 0.728
11 | GATGATTGTTCTCCCAGCTGATGAATTTGAAAGTTCGAGTAAACAAATTTTCCTAATCTTTCTGTTCAAGCGCCATCTAC | 0.236
12 | GATGATTGTTCTCCCAGCTGATGAATTTCCGCTATCGAGTAAACAAATTTTCCTAATCTTTCTGTTCAAGCGCCATCTAC | 0.699
13 | GATGATTGTTCTCCCAGCTGATGAATTGATAGCTTCGAGTAAACAAATTTTCCTAATCTTTCTGTTCAAGCGCCATCTAC | 0.586
14 | GATGATTGTTCTCCCAGCTGATGAATTAAATTAATCGAGTAAACAAATTTTCCTAATCTTTCTGTTCAAGCGCCATCTAC | 0.314
15 | GATGATTGTTCTCCCAGCTGATGAATTTATAATGTCGAGTAAACAAATTTTCCTAATCTTTCTGTTCAAGCGCCATCTAC | 0.969
16 | GATGATTGTTCTCCCAGCTGATGAATTCTTTCAGTCGAGTAAACAAATTTTCCTAATCTTTCTGTTCAAGCGCCATCTAC | 0.202
17 | GATGATTGTTCTCCCAGCTGATGAATTTCCGTCGTCGAGTAAACAAATTTTCCTAATCTTTCTGTTCAAGCGCCATCTAC | 0.435
18 | GATGATTGTTCTCCCAGCTGATGAATTGGCTGCCTCGAGTAAACAAATTTTCCTAATCTTTCTGTTCAAGCGCCATCTAC | 0.602
19 | GATGATTGTTCTCCCAGCTGATGAATTACGATCCTCGAGTAAACAAATTTTCCTAATCTTTCTGTTCAAGCGCCATCTAC | 0.509
20 | GATGATTGTTCTCCCAGCTGATGAATTACCCTCTTCGAGTAAACAAATTTTCCTAATCTTTCTGTTCAAGCGCCATCTAC | 0.31

Row | Sequence | binding signal (RPM ratio (pull-down/input))
21 | GATGATTGTTCTCCCAGCTGATGAATTAGCCTAGTCGAGTAAACAAATTTTCCTAATCTTTCTGTTCAAGCGCCATCTAC | 0.301
22 | GATGATTGTTCTCCCAGCTGATGAATTCGCTTGGTCGAGTAAACAAATTTTCCTAATCTTTCTGTTCAAGCGCCATCTAC | 1.56
23 | GATGATTGTTCTCCCAGCTGATGAATTGACGGTATCGAGTAAACAAATTTTCCTAATCTTTCTGTTCAAGCGCCATCTAC | 0.612
24 | GATGATTGTTCTCCCAGCTGATGAATTGTCAGAATCGAGTAAACAAATTTTCCTAATCTTTCTGTTCAAGCGCCATCTAC | 0.223
25 | GATGATTGTTCTCCCAGCTGATGAATTCTTCCAATCGAGTAAACAAATTTTCCTAATCTTTCTGTTCAAGCGCCATCTAC | 0.246
26 | GATGATTGTTCTCCCAGCTGATGAATTACACTTGTCGAGTAAACAAATTTTCCTAATCTTTCTGTTCAAGCGCCATCTAC | 0.829
27 | GATGATTGTTCTCCCAGCTGATGAATTAGGACTCTCGAGTAAACAAATTTTCCTAATCTTTCTGTTCAAGCGCCATCTAC | 1.4
28 | GATGATTGTTCTCCCAGCTGATGAATTTTTTGTTTCGAGTAAACAAATTTTCCTAATCTTTCTGTTCAAGCGCCATCTAC | 0.423
29 | GATGATTGTTCTCCCAGCTGATGAATTCCAATTATCGAGTAAACAAATTTTCCTAATCTTTCTGTTCAAGCGCCATCTAC | 0.917
30 | GATGATTGTTCTCCCAGCTGATGAATTACCTGTATCGAGTAAACAAATTTTCCTAATCTTTCTGTTCAAGCGCCATCTAC | 0.553
31 | GATGATTGTTCTCCCAGCTGATGAATTGTGGCACTCGAGTAAACAAATTTTCCTAATCTTTCTGTTCAAGCGCCATCTAC | 2.09
32 | GATGATTGTTCTCCCAGCTGATGAATTACCGTCCTCGAGTAAACAAATTTTCCTAATCTTTCTGTTCAAGCGCCATCTAC | 0.414
33 | GATGATTGTTCTCCCAGCTGATGAATTCATATTCTCGAGTAAACAAATTTTCCTAATCTTTCTGTTCAAGCGCCATCTAC | 0.783
34 | GATGATTGTTCTCCCAGCTGATGAATTGGAACTGTCGAGTAAACAAATTTTCCTAATCTTTCTGTTCAAGCGCCATCTAC | 0.287
35 | GATGATTGTTCTCCCAGCTGATGAATTTGATCCATCGAGTAAACAAATTTTCCTAATCTTTCTGTTCAAGCGCCATCTAC | 0.378
36 | GATGATTGTTCTCCCAGCTGATGAATTTCCACGTTCGAGTAAACAAATTTTCCTAATCTTTCTGTTCAAGCGCCATCTAC | 0.311
37 | GATGATTGTTCTCCCAGCTGATGAATTGGCCAACTCGAGTAAACAAATTTTCCTAATCTTTCTGTTCAAGCGCCATCTAC | 0.293
38 | GATGATTGTTCTCCCAGCTGATGAATTAGTTGGGTCGAGTAAACAAATTTTCCTAATCTTTCTGTTCAAGCGCCATCTAC | 4.35
39 | GATGATTGTTCTCCCAGCTGATGAATTGCTTCCCTCGAGTAAACAAATTTTCCTAATCTTTCTGTTCAAGCGCCATCTAC | 0.536
40 | GATGATTGTTCTCCCAGCTGATGAATTACGGGCATCGAGTAAACAAATTTTCCTAATCTTTCTGTTCAAGCGCCATCTAC | 0.864
